Data on 26 compounds can be found in the antibiotic and cytotoxicity screens of Wong et al. (2023).

Some of the results follow.

The test system of assay [1] is HSkMC (human skeletal muscle cells). In words: cytotoxicity call (relative viability < 0.9). The conditions noted are these: 10 µM.
For assay [2], the system named is HepG2. Description: cytotoxicity call (relative viability < 0.9). The following applies: 10 µM.
Assay [3] relates to S. aureus RN4220. Description: growth inhibition call (relative growth <= 0.2). The following applies: 50 µM.

As to `C[C@H](CO)N1C[C@H](C)[C@H](CN(C)C(=O)C2CCC2)Oc2cc(-c3ccc(C(=O)N(C)C)cc3)ccc2S1(=O)=O`, the cytotoxicity call in assay [1] and in assay [2] was “inactive” throughout. Further, the growth inhibition call in assay [3] was “inactive”.

Consider `C[C@H]1CN(C(=O)N(C)C)CCN1C(=O)N(C)C`, for which the cytotoxicity call in assay [1] and in assay [2] was “inactive” throughout. For the same compound, the growth inhibition call in assay [3] is “inactive”.

As to `C[C@H]1CN([C@@H](C)CO)C(=O)c2cc(NC(=O)Nc3cccc4ccccc34)ccc2O[C@@H]1CN(C)Cc1ccc(Oc2ccccc2)cc1`, the cytotoxicity call in assay [1] was “inactive”. Further, the cytotoxicity call in assay [2] was “active”. The growth inhibition call in assay [3] was “inactive”.

For the compound `O=C(C[C@H]1CC[C@@H]2[C@H](COC[C@H](O)CN2S(=O)(=O)c2ccccc2)O1)NCc1ccc(-c2ccccc2)cc1`, the cytotoxicity call in assay [1] and in assay [2] was “inactive” throughout. Besides, the growth inhibition call in assay [3] was “inactive”.

Take `C/C=C/c1ccc([C@@H]2[C@H](CO)N(S(=O)(=O)CC)C23CN(C(=O)CN(C)C)C3)cc1`: the cytotoxicity call in assay [1] and in assay [2] was “inactive” each time. Moreover, the growth inhibition call in assay [3] is “inactive”.

Turning to `COc1ccc(NC(=O)Nc2cccc3c2O[C@H](CN(C)S(=O)(=O)c2cn(C)cn2)[C@H](C)CN([C@@H](C)CO)C3=O)cc1`, the cytotoxicity call in assay [1] and in assay [2] was “inactive” each time. For the same compound, the growth inhibition call in assay [3] is “inactive”.

For `C[C@@H]1CN([C@H](C)CO)C(=O)c2cc(NC(=O)Nc3ccc(C(F)(F)F)cc3)ccc2O[C@H]1CN(C)Cc1ccc(C(=O)O)cc1`, the cytotoxicity call in assay [1] and in assay [2] was “inactive” in each case. In addition, the growth inhibition call in assay [3] is “inactive”.

For `COc1ccccc1-c1cnc2c(c1)C(=O)N([C@H](C)CO)C[C@@H](C)[C@@H](CN(C)C(=O)c1cccnc1)O2`, the cytotoxicity call in assay [1] and in assay [2] was “inactive” in each case. The growth inhibition call in assay [3] was “inactive”.

Take `C[C@@H]1CN([C@H](C)CO)C(=O)c2cccc(NC(=O)C3CC3)c2O[C@H]1CN(C)Cc1ccc2c(c1)OCO2`: the cytotoxicity call in assay [1] and in assay [2] was “inactive” throughout. Also, in assay [3], the growth inhibition call is “inactive”.

On to `C[C@H]1CN([C@@H](C)CO)C(=O)Cc2cc(NC(=O)Nc3ccc(F)cc3)ccc2O[C@@H]1CN(C)CC1CCCCC1`, for which the cytotoxicity call in assay [1] was “inactive”. Further, the cytotoxicity call in assay [2] is “active”. The growth inhibition call in assay [3] is “inactive”.

On to `CO[C@H]1CN(C)C(=O)c2ccc(NS(=O)(=O)c3cn(C)cn3)cc2OC[C@H](C)N(CCC(F)(F)F)C[C@H]1C`, for which the cytotoxicity call in assay [1] and in assay [2] was “inactive” in each case. In addition, the growth inhibition call in assay [3] is “inactive”.

`OC[C@H]1O[C@@H](S[C@@H]2O[C@H](CO)[C@H](O)[C@H](n3cc(-c4cccc(F)c4)nn3)[C@H]2O)[C@H](O)[C@@H](n2cc(-c3cccc(F)c3)nn2)[C@H]1O`: the cytotoxicity call in assay [1] and in assay [2] was “inactive” each time. Moreover, in assay [3], the growth inhibition call is “inactive”.

In the case of `C[C@@H]1CCCCO[C@H](CN(C)Cc2ccccc2)[C@@H](C)CN([C@@H](C)CO)C(=O)c2cc(NC(=O)c3ccccc3)ccc2O1`, the cytotoxicity call in assay [1] and in assay [2] was “inactive” throughout. For the same compound, the growth inhibition call in assay [3] is “inactive”.

As to `C[C@@H]1C(=O)O[C@H]2[C@H](O)[C@@]34[C@H]5C[C@@H](C(C)(C)C)[C@]36[C@@H](OC(=O)[C@@H]6O)O[C@@]4(C(=O)O5)[C@@]12O`, the cytotoxicity call in assay [1] and in assay [2] was “inactive” in each case. For the same compound, the growth inhibition call in assay [3] is “inactive”.

For the compound `COc1ccc(S(=O)(=O)Nc2ccc3c(c2)CC(=O)N([C@H](C)CO)C[C@H](C)[C@H](CN(C)S(C)(=O)=O)O3)cc1`, the cytotoxicity call in assay [1] and in assay [2] was “inactive” each time. Besides, in assay [3], the growth inhibition call is “inactive”.

As to `CCCN(C)C[C@@H]1Oc2cc(C#Cc3ccccc3OC)ccc2S(=O)(=O)N([C@H](C)CO)C[C@@H]1C`, the cytotoxicity call in assay [1] and in assay [2] was “inactive” each time. The growth inhibition call in assay [3] was “inactive”.

On to `COc1ccc(NC(=O)N(C)C[C@H]2Oc3ccc(NC(=O)Cn4cnnn4)cc3C(=O)N([C@H](C)CO)C[C@@H]2C)cc1`, for which the cytotoxicity call in assay [1] and in assay [2] was “inactive” throughout. Further, in assay [3], the growth inhibition call was “inactive”.

`Cc1nc2n(c(=O)c1C)[C@H](CC(=O)O)CS2`: the cytotoxicity call in assay [1] and in assay [2] was “inactive” in each case. Besides, the growth inhibition call in assay [3] was “inactive”.

As to `CCCN(C)C[C@@H]1OCCCC[C@H](C)Oc2ccc(NC(=O)Nc3ccc(C(F)(F)F)cc3)cc2C(=O)N([C@H](C)CO)C[C@@H]1C`, the cytotoxicity call in assay [1] is “inactive”. Moreover, the cytotoxicity call in assay [2] was “active”. For the same compound, in assay [3], the growth inhibition call was “inactive”.

Turning to `C[C@@H](NC(=O)C[C@H]1C=C[C@H](NC(=O)CN2CCOCC2)[C@H](CO)O1)c1ccccc1`, the cytotoxicity call in assay [1] and in assay [2] was “inactive” each time. Also, the growth inhibition call in assay [3] was “inactive”.

With `COc1ccc(S(=O)(=O)Nc2cccc3c2O[C@@H](CN(C)S(=O)(=O)c2ccc(C)cc2)[C@@H](C)CN([C@@H](C)CO)C3=O)cc1`, the cytotoxicity call in assay [1] and in assay [2] was “inactive” each time. Besides, the growth inhibition call in assay [3] was “inactive”.

`CC(C)C#Cc1ccc2c(c1)O[C@@H](CN(C)C(=O)Cc1ccccn1)[C@H](C)CN([C@@H](C)CO)S2(=O)=O`: the cytotoxicity call in assay [1] and in assay [2] was “inactive” each time. In addition, the growth inhibition call in assay [3] is “inactive”.

Regarding `COc1ccc(C#Cc2cnc3c(c2)C(=O)N([C@H](C)CO)C[C@H](C)[C@H](CN(C)Cc2ccncc2)O3)cc1OC`, the cytotoxicity call in assay [1] and in assay [2] was “inactive” each time. In addition, the growth inhibition call in assay [3] was “inactive”.

As for `C[C@H](CO)N1C[C@H](C)[C@@H](CN(C)S(=O)(=O)c2cccs2)Oc2c(NS(C)(=O)=O)cccc2C1=O`, the cytotoxicity call in assay [1] and in assay [2] was “inactive” throughout. Moreover, the growth inhibition call in assay [3] was “inactive”.

For the compound `C[C@@H]1CCCCO[C@@H](CN(C)S(=O)(=O)c2ccc(F)cc2)[C@H](C)CN([C@@H](C)CO)C(=O)c2cc(NC(=O)Nc3ccc4c(c3)OCO4)ccc2O1`, the cytotoxicity call in assay [1] and in assay [2] was “inactive” throughout. For the same compound, in assay [3], the growth inhibition call is “inactive”.

For `COc1ccc(S(=O)(=O)N2C[C@H](O)COC[C@@H]3O[C@@H](CC(=O)N[C@@H]4CCN(Cc5ccccc5)C4)CC[C@H]32)cc1`, the cytotoxicity call in assay [1] and in assay [2] was “inactive” in each case. For the same compound, the growth inhibition call in assay [3] was “inactive”.
